# The whole screen tested about 280,000 compounds, of which about 100 (0.036%) were called active. This list was built around the results that the source calls inconclusive (neither active nor inactive); the mix of calls is not that of the screen. Calls follow the shape of the dose curve; as a rule, active = well fitted inhibition curve with a large enough effect in the signal ratio, with a control signal flat (not every such curve was filed as active); inconclusive = small, poorly fitted or top-dose-only effect, or effect the other way, or a change in a side signal; inactive = no such curve, though single readings can be large or run the other way; the % refers to the signal ratio. A potency beside an inconclusive call is a rough fit, not a confirmed value. “Side channel” marks fits to a control or component signal instead of the main read-out.
# Target: Muscleblind-like protein 1 (Homo sapiens) (UniProt Q9NR56)
# Chain of UniProt Q9NR56 (Q9NR56 whole entry, looked up): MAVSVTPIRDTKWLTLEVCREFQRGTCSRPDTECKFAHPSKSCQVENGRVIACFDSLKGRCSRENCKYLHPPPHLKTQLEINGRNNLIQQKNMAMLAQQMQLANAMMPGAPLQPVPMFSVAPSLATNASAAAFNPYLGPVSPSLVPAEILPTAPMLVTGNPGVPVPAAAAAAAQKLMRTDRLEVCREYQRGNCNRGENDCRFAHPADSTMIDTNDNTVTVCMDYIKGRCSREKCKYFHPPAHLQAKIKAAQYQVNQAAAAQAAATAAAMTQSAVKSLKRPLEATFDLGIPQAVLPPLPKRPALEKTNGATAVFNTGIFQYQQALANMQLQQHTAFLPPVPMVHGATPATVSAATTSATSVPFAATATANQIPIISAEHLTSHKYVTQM
# Test: qHTS Assay for Inhibitors of MBNL1-poly(CUG) RNA binding
# Conditions: TR-FRET MBNL1-His/biotin-(CUG)12 binding, 665/545 ratio; series mostly up to 57.5 µM
# Method in brief: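 MBNL1-His + Biotin-(CUG)12, cpd titration 92 nM–58 uM; Tb anti-His Ab 0.055 ng/ul, SA-XL665 5 nM (final); 60 min RT; ratiometric 665/545 nm, Ex 340 nm; normalized to buffer and full-complex controls.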
# Potency is read from the fitted curve at half-maximal effect; tags tell the direction and shape of the fitted curve or compound fluorescence and quenching.
row,Structure (SMILES),Potency
1,CCOC(=O)CC1C(C(=O)OCC)ON2OC(C(=O)OC)C(C(=O)OCC)C12 (configuration not stated),"inconclusive: 8.91 µM [quencher, side channel, single point]"
2,C=CCSc1cc(C)nc2c(-c3ccccc3)c(C)nn12,inactive
3,CS(=O)(=O)N(CC(=O)Nc1c(F)cccc1F)c1cccc([N+](=O)[O-])c1,"inconclusive: 22.4 µM [quencher, side channel, single point]"
4,O=C(Nc1ccc(Cl)cc1)Nc1ccccc1Sc1ncc([N+](=O)[O-])s1,"inconclusive: 20 µM [quencher, single point]"
5,Cc1cc(C)c(S(=O)(=O)N2CCN(S(=O)(=O)N3CCC(C)CC3)CC2)c(C)c1,inactive
6,O=C(CCCN1C(=O)/C(=C/c2ccccc2Cl)SC1=S)NNC(=O)c1ccc(Cl)cc1Cl,inactive
7,CC(C)Oc1ccc(CCC(=O)N/N=C/c2ccncc2)cc1,inactive
8,NNC(=S)Nc1ccc(OC(F)(F)F)cc1,inactive
9,Cc1ccc(C)c(NC(=S)NCCSc2ccc(Cl)cc2)c1,"inconclusive: 0.282 µM [quencher, side channel, partial curve]"
10,Cc1ccc2nsnc2c1S(=O)(=O)N(CCO)Cc1cc2cc3c(cc2[nH]c1=O)OCCO3,"inconclusive: 7.94 µM [quencher, side channel, partial curve]"
11,CO[C@H]1C=CO[C@@]2(C)Oc3c(C)c(O)c4c(O)c(c5c(c4c3C2=O)NC2(CCN(CC(C)C)CC2)N=5)=NC(=O)C(C)=CC=C[C@H](C)[C@H](O)[C@@H](C)[C@@H](O)[C@@H](C)[C@H](OC(C)=O)[C@@H]1C,"inconclusive: 17.8 µM [quencher, side channel, partial curve]"
12,O=C(N/N=C/c1cnc(N2CCOCC2)s1)c1ccccc1,"inconclusive: 15.8 µM [quencher, side channel, partial curve]"
13,CCOC(=O)c1nc(Nc2ccc(C(=O)O)cc2)c2ccccc2n1,"inconclusive: 22.4 µM [quencher, side channel, single point]"
14,COc1cc(C2C3=C(CCCC3=O)Nc3ccc4ncccc4c32)ccc1O (configuration not stated),"inconclusive: 31.6 µM [quencher, side channel, single point]"
15,COC(=O)c1cc(-c2ccc(C)o2)nc2ccccc12,"inconclusive: 15.8 µM [quencher, side channel, partial curve]"
16,COc1ccc([N+](=O)[O-])cc1NC(=S)NC(=O)C(C)(C)C,"inconclusive: 3.55 µM [quencher, side channel, single point]"
17,Cc1cc(C)c(S(=O)(=O)N2CCN(c3ccc([N+](=O)[O-])c(NCC4CCCO4)c3)CC2)c(C)c1 (configuration not stated),"inconclusive: 100 µM [inhibitor, single point]"
18,CC(=O)c1cnc(Nc2ccccc2)s1,"inconclusive: 20 µM [quencher, side channel, partial curve]"
19,Cc1ccc(Nc2nc(C)nc3c2oc2ccccc23)cc1,inactive
20,O=C(CN1C(=O)S/C(=C\c2cccs2)C1=O)Nc1ccc(O)c(C(=O)O)c1,"inconclusive: 11.2 µM [quencher, side channel, partial curve]"
21,O=C(Oc1ccccc1)c1ccc2c(c1)C(=O)N(Cc1ccncc1)C2=O,"inconclusive: 11.2 µM [quencher, side channel, partial curve]"

row,Structure (SMILES),Potency
1,CCN1CC2([N+](=O)[O-])C=CC(=O)C([N+](=O)[O-])(C1)C2CC(=O)c1ccccc1 (configuration not stated),"inconclusive: 28.2 µM [quencher, side channel, partial curve]"
2,Cc1cccc(-n2c(CCc3ccccc3)nnc2SCC(=O)c2ccccc2)c1,"inconclusive: 17.8 µM [quencher, side channel, single point]"
3,COCc1cc(C)nc2sc(C(=O)N3CCCC3)c(N)c12,"inconclusive: 39.8 µM [quencher, single point]"
4,CCOC(=O)N1CCN(C(=O)CSc2nc(-c3cccc(C)c3)ns2)CC1,inactive
5,COc1cc(/C=C/C(=O)c2ccc3c(c2)OCCO3)cc(OC)c1OC,inactive
6,COc1cc2c(cc1NC(=O)COC(=O)Cn1cnc3ccccc31)oc1ccccc12,inactive
7,Cc1cc(N2CCOCC2)nc2ccc(NC(=O)C3CCC(C)CC3)cc12 (configuration not stated),inactive
8,COc1ccc(/C=N/N2CCOCC2)cc1COc1ccc(F)cc1,inactive
9,Cc1ccc(C(=O)NCCN2C3=NC[C@H](Cc4ccc(O)cc4)N3C[C@H]2Cc2ccc(O)cc2)cc1Br,"inconclusive: 63.1 µM [inhibitor, partial curve]"
10,CCn1nc(C)cc1-c1nnc(SCC(=O)Nc2ccccc2)n1CCCOC,inactive
11,O=C(CN1CCOCC1)N/N=C/c1cccc2ccccc12,"inconclusive: 22.4 µM [quencher, side channel, single point]"
12,Cc1ccc(OCC(=O)NCC(=O)Nc2ccc(F)c(F)c2F)c([N+](=O)[O-])n1,"inconclusive: 17.8 µM [quencher, side channel, single point]"
13,CC(Oc1ccc(Cl)cc1Cl)C(=O)Nc1cccnc1 (configuration not stated),"inconclusive: 10 µM [fluorescent, side channel, partial curve, poor fit]"
14,C=CCN1C=CC(=C/C=C(/C#N)C(=O)OCC)C=C1,"inconclusive: 10 µM [quencher, side channel, partial curve]"
15,COc1ccc(-c2c3c(=O)n(C)c(=O)n(C)c3cn2-c2ccc(O)cc2)cc1,"inconclusive: 20 µM [quencher, side channel, partial curve]"
16,CC1=NN(Cc2ccccc2)C(=O)/C1=C\c1ccc(N(C)C)cc1,"inconclusive: 11.2 µM [quencher, side channel, partial curve]"
17,CC1(C)CC(=O)C(N=Nc2cc(S(=O)(=O)N3CCOCC3)ccc2Cl)=C(O)C1,"inconclusive: 11.2 µM [quencher, side channel, partial curve]"
18,NS(=O)(=O)c1ccc(CCNC(=O)c2ccc([N+](=O)[O-])cc2[N+](=O)[O-])cc1,"inconclusive: 12.6 µM [quencher, side channel, partial curve]"
19,CC[N+](CC)(CC)CCCCOc1ccc2c(c1)C(=O)c1cc(OCCCC[N+](CC)(CC)CC)ccc1-2,"inconclusive: 12.6 µM [quencher, side channel, partial curve]"
20,O=C(ON=C1CCN(c2ccc([N+](=O)[O-])cc2)CC1)c1ccccc1,"inconclusive: 14.1 µM [quencher, side channel, partial curve]"
21,Cc1ccc(-n2c(N)c(C(=O)NCc3ccco3)sc2=S)cc1,"inconclusive: 14.1 µM [quencher, partial curve]"

row,Structure (SMILES),Potency
1,Cc1ccc(NC(=O)NCc2c(C)nn(C)c2C)cc1Cl,inactive
2,CC(C)(C)Sc1ccc2nc3c(n2c1)CCCC3,inactive
3,c1ccc(-c2ncnc3cc4n(c23)CCC4)cc1,inactive
4,CC(C(=O)NC1CCCC1)N1C(=O)c2cccc3cccc1c23 (configuration not stated),"inconclusive: 11.2 µM [quencher, side channel, partial curve]"
5,COc1cccc2cc(C(=O)N3CCc4ccccc4C3)c(=O)oc12,"inconclusive: 25.1 µM [quencher, side channel, single point]"
6,CC(C)CCN1C(=O)c2ccc(C(=O)Nc3cc(C(=O)O)cc(C(=O)O)c3)cc2C1=O,"inconclusive: 15.8 µM [quencher, side channel, partial curve]"
7,O=S(=O)(NCC(Nc1ccccc1)c1ccccc1)c1ccc(Cl)cc1 (configuration not stated),"inconclusive: 5.62 µM [quencher, side channel, full curve]"
8,Cn1c(/C=C/c2ccc(Br)cc2)c([N+](=O)[O-])c(=O)n(C)c1=O,inactive
9,COc1ccccc1/C=N/NC(=O)CCn1cnc2ccccc21,"inconclusive: 0.1 µM [fluorescent, side channel, full curve]"
10,O=C(c1ccccc1)C1CCN(c2ncccc2[N+](=O)[O-])CC1,"inconclusive: 25.1 µM [quencher, side channel, partial curve]"
11,COC(=O)c1ccc(OC(=O)CS(=O)c2ccccc2[N+](=O)[O-])cc1 (configuration not stated),"inconclusive: 8.91 µM [quencher, side channel, partial curve]"
12,COc1ccc(/C=N/NC(=O)c2cccc([N+](=O)[O-])c2)cc1OS(=O)(=O)c1ccccc1,"inconclusive: 14.1 µM [quencher, side channel, partial curve]"
13,Cn1nc(-c2ccc(Cl)cc2)c2cc(C(=O)N3CCN(c4ccccc4)CC3)sc21,inactive
14,Cc1cccc(Nc2nc(N3CCOCC3)nc(N3CCOCC3)n2)c1,inactive
15,CCOc1cc(/C=C2\C(=O)ON=C2c2ccccc2)cc(Br)c1O,"inconclusive: 31.6 µM [quencher, side channel, single point]"
16,Cc1cc(C)nc(Nc2cc([N+](=O)[O-])ccc2C)n1,"inconclusive: 25.1 µM [quencher, side channel, single point]"
17,O=C(C[n+]1ccccc1)Nc1ccccc1[N+](=O)[O-],inactive
18,C=CCNc1nc(-c2c(C)nc3sccn23)cs1,inactive
19,O=C(NC(=S)NNC(=O)c1cnccn1)c1ccc(F)cc1,inactive
20,O=C1N=C(N2CCCCC2)S/C1=C\c1cn[nH]c1-c1ccccc1,"inconclusive: 3.16 µM [quencher, side channel, partial curve]"
